Publication PMC12152161
Positions count from the first letter of the chain named. Numbers in names are those of the source. These are yes or no findings as the source states them, for the method shown. For part of these data: In cells and extracts the contact can be indirect. Some binding calls cover weakened binding; strength is not graded here. Tags and fused reporters may be left off the sequences shown. One block for each binder: values may come before it.

Legend:
[1] = biological target: T1, His10 − MBP − KIF1C(714–809) (UniProt O43896); assay: native gel or EMSA; His10−MBP-tagged recombinant proteins alone or mixed (10 µM; molar ratio 1:1), incubated 16 h at 4 °C, 10% native gel, 120 V for 2 h on ice, Coomassie staining; both purified
T1 sequence: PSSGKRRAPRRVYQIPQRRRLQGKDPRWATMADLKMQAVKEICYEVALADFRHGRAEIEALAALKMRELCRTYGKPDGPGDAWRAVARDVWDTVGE

[2] = biological target: T2, His10 − MBP − KIF1C(714–809; Y757A ∙ F764A) (UniProt O43896); assay: as above
T2 sequence: T1 sequence with Y44A, F51A

[3] = biological target: T3, His10 − MBP−Hook3(553–624) (UniProt Q86VS8); assay: as above
T3 sequence: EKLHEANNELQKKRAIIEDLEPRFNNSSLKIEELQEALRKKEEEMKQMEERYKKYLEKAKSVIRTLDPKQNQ

[4] = biological target: T4, full-length KIF1C(WT)−Flag−EGFP (UniProt O43896); assay: co-IP; HEK293T cells co-expressing KIF1C−Flag−EGFP and Hook3−Myc−FuRed, lysed 16 h after transfection in Pierce IP lysis buffer; immunoprecipitation with anti-Flag M2 and protein A/G agarose, immunoblot with anti-Myc and anti-Flag
T4 sequence: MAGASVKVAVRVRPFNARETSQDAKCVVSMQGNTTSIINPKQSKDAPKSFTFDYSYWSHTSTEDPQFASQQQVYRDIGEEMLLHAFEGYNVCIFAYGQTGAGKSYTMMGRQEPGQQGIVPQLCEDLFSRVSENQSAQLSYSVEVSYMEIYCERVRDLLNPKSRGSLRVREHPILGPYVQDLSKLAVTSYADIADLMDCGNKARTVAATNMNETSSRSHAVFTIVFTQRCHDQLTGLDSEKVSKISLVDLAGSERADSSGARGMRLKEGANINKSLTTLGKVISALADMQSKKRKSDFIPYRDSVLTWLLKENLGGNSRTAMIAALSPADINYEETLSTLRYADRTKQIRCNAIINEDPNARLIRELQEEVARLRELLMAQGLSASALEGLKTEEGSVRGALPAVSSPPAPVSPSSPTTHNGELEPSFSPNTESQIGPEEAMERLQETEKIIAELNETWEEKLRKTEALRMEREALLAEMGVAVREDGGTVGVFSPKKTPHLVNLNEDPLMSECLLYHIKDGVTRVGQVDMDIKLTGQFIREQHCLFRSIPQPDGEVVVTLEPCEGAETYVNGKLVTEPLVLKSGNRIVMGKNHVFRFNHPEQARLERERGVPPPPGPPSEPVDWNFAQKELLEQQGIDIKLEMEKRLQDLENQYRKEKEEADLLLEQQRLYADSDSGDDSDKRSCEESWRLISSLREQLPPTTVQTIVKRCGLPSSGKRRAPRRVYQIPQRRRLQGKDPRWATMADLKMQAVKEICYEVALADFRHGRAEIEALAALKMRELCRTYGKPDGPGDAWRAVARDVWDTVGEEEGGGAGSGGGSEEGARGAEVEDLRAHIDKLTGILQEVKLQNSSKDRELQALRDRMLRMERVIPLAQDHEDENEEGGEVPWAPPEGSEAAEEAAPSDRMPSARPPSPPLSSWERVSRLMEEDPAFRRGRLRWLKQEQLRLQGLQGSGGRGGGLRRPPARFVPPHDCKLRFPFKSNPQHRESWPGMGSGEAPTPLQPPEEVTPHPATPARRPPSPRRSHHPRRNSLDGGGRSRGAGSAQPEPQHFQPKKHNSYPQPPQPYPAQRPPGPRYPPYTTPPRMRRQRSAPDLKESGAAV

- binding [1]: no binding
- binding [2]: no binding
B1: His10 − MBP−Hook3(553–624; V614E) (domain or fragment, UniProt Q86VS8 553-624)
chain: T3 sequence with V62E

- binding [2]: no binding
B2: His10 − MBP−Hook3(553–624) (domain or fragment, UniProt Q86VS8 553-624)
chain: T3 sequence

- binding [3]: no binding
B3: His10 − MBP − PTPN21(19–308) (domain or fragment, UniProt Q16825 19-308)
chain: SKSCLVARIQLLNNEFVEFTLSVESTGQESLEAVAQRLELREVTYFSLWYYNKQNQRRWVDLEKPLKKQLDKYALEPTVYFGVVFYVPSVSQLQQEITRYQYYLQLKKDILEGSIPCTLEQAIQLAGLAVQADFGDFDQYESQDFLQKFALFPVGWLQDEKVLEEATQKVALLHQKYRGLTAPDAEMLYMQEVERMDGYGEESYPAKDSQGSDISIGACLEGIFVKHKNGRHPVVFRWHDIANMSHNKSFFALELANKEETIQFQTEDMETAKYIWRLCVARHKFYRLNQ

- binding [1]: no binding (tested: 10 µM)
Binder: EKLHEANNELQKKRAIIEDLEPRFNNSSLKIEELQEAL (domain or fragment, UniProt Q86VS8 553-590) [His10 − MBP−Hook3(553–590)]

- binding [4]: binds
B4: full-length Hook3(WT)−Myc−FuRed (protein, UniProt Q86VS8 1-718)
chain: MFSVESLERAELCESLLTWIQTFNVDAPCQTVEDLTNGVVMAQVLQKIDPAYFDENWLNRIKTEVGDNWRLKISNLKKILKGILDYNHEILGQQINDFTLPDVNLIGEHSDAAELGRMLQLILGCAVNCEQKQEYIQAIMMMEESVQHVVMTAIQELMSKESPVSAGNDAYVDLDRQLKKTTEELNEALSAKEEIAQRCHELDMQVAALQEEKSSLLAENQVLMERLNQSDSIEDPNSPAGRRHLQLQTQLEQLQEETFRLEAAKDDYRIRCEELEKEISELRQQNDELTTLADEAQSLKDEIDVLRHSSDKVSKLEGQVESYKKKLEDLGDLRRQVKLLEEKNTMYMQNTVSLEEELRKANAARSQLETYKRQVVELQNRLSEESKKADKLDFEYKRLKEKVDSLQKEKDRLRTERDSLKETIEELRCVQAQEGQLTTQGLMPLGSQESSDSLAAEIVTPEIREKLIRLQHENKMLKLNQEGSDNEKIALLQSLLDDANLRKNELETENRLVNQRLLEVQSQVEELQKSLQDQGSKAEDSVLLKKKLEEHLEKLHEANNELQKKRAIIEDLEPRFNNSSLKIEELQEALRKKEEEMKQMEERYKKYLEKAKSVIRTLDPKQNQGAAPEIQALKNQLQERDRLFHSLEKEYEKTKSQREMEEKYIVSAWYNMGMTLHKKAAEDRLASTGSGQSFLARQRQATSSRRSYPGHVQPATAR
